Assay results reported in PubChem BioAssay AID493208 (National Center for Advancing Translational Sciences (NCATS), 2011).
Out of some 44,000 compounds screened, about 340 (0.77%) were called active. Not shown: some 5% with an inconclusive outcome. Calls follow the shape of the dose curve; as a rule, active = well fitted inhibition curve with a large enough effect; inconclusive = small, poorly fitted or top-dose-only effect; inactive = flat fitted curve, though single readings scatter. The list shows a part of the results.

Assay: Acumen qHTS Assay for Inhibitors of the mTORC1 Signaling Pathway in MEF (Tsc2-/-, p53-/-) Cells: Sytravon;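 also: plate controls were DMSO for no effect and rapamycin for full effect; nearly all actives have a fitted effect of over 50% in size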
Details: phospho-rpS6 immunofluorescence/PI, 24 h; series mostly up to 38.3 µM; activity change, negative = inhibition: at the top concentration
Method in brief: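 Read-out: phospho-S6 Alexa-488 intensity over PI intensity per well, scored as % active cells using thresholds from rapamycin (7.5 nM) and DMSO controls. Tsc2-/-, p53-/- MEFs exposed to compound for 24 h; PI cell count recorded as viability.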

Activity change, negative = inhibition, inactive:
CCC(C(=O)Nc1cc(-c2cn3cccnc3n2)ccc1C)c1ccccc1 (stereo unspecified) -10.2%, CCCCNS(=O)(=O)c1ccc(NC(=O)c2c(-c3ccccc3)noc2C)cc1 3.15%, CCc1cccc(NC(=O)Cn2c(-c3ccc(F)cc3)cc(C(C)=O)c2C)c1 -0.0905%, O=C(c1ccc2c(c1)N(Cc1ccccc1Cl)C(=O)c1ccccc1S2)N1CCCC1 1.07%, Nc1nc2nc(-c3ccccc3)cc(=O)n2[nH]1 3.55%, Cc1ccc(NC(=O)C2CCN(S(=O)(=O)c3ccc4c(c3)CCCC(=O)N4)CC2)c(Br)c1 -6.88%, COc1ccc(NC(=O)CN2CCCN(Cc3ccccc3)S2(=O)=O)cc1 -0.647%, Cc1cccc(NS(=O)(=O)c2ccc3c(c2)n(C)c(=O)n3C)c1C -19.2%, Fc1ccc(CNc2nc(-c3ccc(Cl)cc3)cc(C(F)(F)F)n2)cc1 -1.86%, O=C(CSc1nc2ccccc2nc1Cc1ccc(Cl)cc1)N1CCCCC1 0%, O=c1oc2ccccc2cc1-c1nc(-c2cccc(Cl)c2)cs1 -9.67%, COc1ccccc1N1CCN(c2ncc3c(n2)CCN(Cc2ccc(C)s2)C3)CC1 0%, COc1ccc(Cl)cc1NC(=O)CSc1nc(-c2cccs2)cc(C(F)(F)F)n1 12.9%, Cc1ccc(Cl)cc1N1CCN(C(=O)c2sc3nc4n(c(=O)c3c2C)CCC4)CC1 -14.8%, CCN(CC)C(=O)Cn1cc(SCC(=O)Nc2cc(OC)ccc2OC)c2ccccc21 -13.7%, CN(C)CCNC(=O)c1ccc2nc(Cc3ccccc3)oc2c1 1.22%, COc1ccc(Cl)cc1NC(=O)CSc1cc(C)[nH]c(=O)n1 -7.75%, Cc1cccn2c(=O)cc(CSc3nnc(NC(=O)C(C)C)s3)nc12 -4.77%, CCC(CC)C(=O)Nc1ccc2nc(SCC(=O)N3CCOCC3)sc2c1 -0.148%, O=C(NCc1ccc(Cl)cc1)C1CCN(S(=O)(=O)c2ccc(F)cc2)CC1 11.5%, CSc1ccc(CCNC(=O)c2c(C)nn(-c3ccc(F)cc3)c2-n2cccc2)cc1 0%, COc1ccc(C(=O)NCC(c2ccc(N(C)C)cc2)N2CCOCC2)cc1 (stereo unspecified) -12.2%, Cc1ccc(CSc2nc3ccc(NC(=O)CC(C)C)cc3s2)cc1 -0.201%, CCC(C)n1c(SCc2ccc(F)cc2Cl)nc2ccsc2c1=O (stereo unspecified) -2.58%, CCOC(=O)c1noc2ncn(Cc3ccc([N+](=O)[O-])cc3)c(=O)c12 -18%, CCC(Oc1ccccc1)C(=O)Nc1cccc(OCc2cc(=O)n3cccc(C)c3n2)c1 (stereo unspecified) 2.42%, Cc1c(C)c2c(cc(C)c3c(-c4ccc(Br)cc4)coc32)oc1=O -1.46%, Cc1ccc(CSc2nnc([C@@H](N)C(C)C)o2)cc1 -14.6%, CC(=O)c1ccc(NC(=O)Cn2c(=O)cc(C)c3c(C)nn(-c4cccc(F)c4)c32)cc1 -12%, CCOC(=O)c1c(C)[nH]c(C)c1S(=O)(=O)NCC(=O)Nc1cccc(SC)c1 3.97%, COc1cccc(NC(=O)CSc2nc(C)c(Cc3ccccc3)c(=O)[nH]2)c1 -0.255%, CCN(CC)c1ccc(C(=O)NCc2nc3cccnc3n2Cc2ccc(C)cc2)cc1 -2.18%, Cc1ccc(C2N=C(N)Nc3nc4ccccc4n32)cc1 (stereo unspecified) 0.162%, Cc1cccc(-c2nc3c4c(-c5ccccc5)c(-c5ccccc5)oc4ncn3n2)c1 0.231%, Cc1cccc(NC(=O)Cn2cc(S(=O)(=O)N3CCCC3)c(S(=O)(=O)N3CCCC3)c2)c1C -12.1%, COc1ccc(NC(=O)c2c(NCc3cccc(F)c3)sc3c2CCC3)c(OC)c1 6.77%, CSCCC(NS(=O)(=O)c1ccc2c(c1)oc(=O)n2C)C(=O)Nc1ccc(F)c(Cl)c1 (stereo unspecified) 0.217%, Cc1cccc(NC(=O)c2cnc3sc(N4CCCC4)nn3c2=O)c1C -2.34%, COc1cccc2sc(N(Cc3cccnc3)C(=O)c3ccco3)nc12 1.07%, COc1ccc(OC)c(CNC(=O)c2c(C)oc3ncn(CC(C)C)c(=O)c23)c1 1.33%, CCCCOc1ccc(C2=NC(c3cccs3)=Nc3ccc(OC)cc3N2)cc1 -21.5%, O=C(NCC(c1cccnc1)N1CCN(c2ccccc2F)CC1)c1ccc(F)cc1 (stereo unspecified) 2.02%, Cc1cc(C)cc(NC(=O)Cc2csc(COc3cccc(C)c3)n2)c1 -17.6%, COc1ccc(C)cc1NC(=O)C(=O)NCCc1sc(-c2cccc(C)c2)nc1C 0.363%, Cc1ccccc1C(=O)Nc1ccc(S(=O)(=O)N2CCC(c3nc4ccccc4s3)CC2)cc1 4.27%, CCOC(=O)c1ccc(NC(=O)CCCc2nc(-c3cc(OC)c(OC)c(OC)c3)no2)cc1 -8.04%, CCCNC(=O)C1CCC(Cn2c(=O)c3sccc3n(CC(=O)NCc3ccccc3)c2=O)CC1 (stereo unspecified) -14.6%, Cc1nn(CCCC(=O)NCc2ccccc2Br)c(=O)c2c1sc1ccccc12 -4.07%, CCOc1ccc(S(=O)(=O)N(CC(=O)Nc2ccc(OC)cc2OC)c2ccccc2)cc1 0.286%, O=C(NCc1ccccc1F)C1CCCN(C(=O)N2CCOc3ccccc32)C1 (stereo unspecified) -1.17%, O=C(CN1C=NS(=O)(=O)c2ccccc21)Nc1ccccc1F 1.3%, COc1ccc(-c2nc3ccccc3o2)cc1NC(=O)COc1ccc(C)c(C)c1 -0.881%, COc1ccc(OC)c(CNS(=O)(=O)c2ccc3c(c2)oc(=O)n3C)c1 -0.414%, COc1ccc(S(=O)(=O)N(CC(=O)N2CCc3ccccc3C2)c2ccc(C)cc2)cc1 -0.0228%, Cc1cccc2nc(Cn3c(=O)n(-c4ccc(Cl)cc4)c(=O)c4c5c(sc43)CCC5)cc(=O)n12 1.1%, CCOc1ccc(C(=O)Nc2cccc(C(=O)OCc3cc(=O)n4cc(C)sc4n3)c2)cc1 0%, COc1ccc(Br)cc1CNC(=O)c1cc(=O)[nH]c2ccc(S(=O)(=O)N3CCCCC3C)cc12 (stereo unspecified) -2.41%, Cc1nn(C(C)C(=O)N2CCN(c3ccc(F)cc3)CC2)c(=O)c2c1sc1ccccc12 (stereo unspecified) 0.828%, CCn1cc(C(=O)NCCc2ccccc2)c(=O)c2cc(S(=O)(=O)N3CCCCCC3)ccc21 -0.217%, COc1ccc(N2C(=O)CS(=O)(=O)C23C(=O)N(Cc2ccccc2F)c2ccccc23)cc1Cl (stereo unspecified) -1.29%, CC(=O)N1c2ccc(S(=O)(=O)N3CCC(C(=O)Nc4cccc(Cl)c4C)CC3)cc2CC1C (stereo unspecified) -6.63%, Cc1cccc(Cn2cc(S(=O)(=O)c3ccccc3)c(=O)c3cc(F)c(N4CCOCC4)cc32)c1 -13%, Cc1cccc(C)c1NC(=O)C1CCCN1S(=O)(=O)c1ccccc1 (stereo unspecified) -0.76%, Cc1ccc2c(CC(=O)Nc3ccc(S(=O)(=O)N4CCCCC4C)cc3)coc2c1C (stereo unspecified) 4.86%, CCc1ccc2ncc3c(-c4ccc(F)cc4)nn(CC(=O)NC4CCCCC4)c3c2c1 -0.642%, CCOC(=O)Cn1c(=O)n(-c2cccc(Cl)c2)c2nc(-c3ccccc3Cl)nc(C(N)=O)c21 -1.17%, Cc1ccccc1OC(=O)c1nc(SCc2ccccc2F)ncc1Cl 0.931%, CN(C)c1ccc(CNC(=O)Cc2ccc(NC(=O)N3CCCCc4ccccc43)cc2)cc1 -14.5%, Cc1ccc(N2CCN(S(=O)(=O)c3nnc(NC(=O)c4ccccc4)s3)CC2)cc1 5.38%, Cc1c(C)n(Cc2ccccc2)c2ccc(C(=O)NCC(C)c3ccccc3)cc12 (stereo unspecified) -2.98%, COc1ccc(N2CCN(C(=O)c3cc4c(=O)oc5ccc(C)cc5c4s3)CC2)cc1 -6.49%, CCOc1ccc(CCNC(=O)c2ccc(-n3c(C)cc4c3CCCC4)cc2)cc1OCC -4.17%, CCCCNc1nc2c(S(=O)(=O)c3ccc(C)cc3)nnn2c2ccsc12 -5.44%, CCOc1ccc(N2CC(NC(=O)c3ccc4c(c3)OCO4)CC2=O)cc1 (stereo unspecified) 0.848%, Cc1cc(C)n(CCC(=O)Nc2ccc(Cl)cc2)n1 -0.463%, O=C(Nc1ccccc1C(=O)OCc1cc(=O)n2nc(C3CC3)sc2n1)c1ccc(Cl)cc1 2.92%, Cc1ccc(C)c(N2CCN(c3nc4ccc(C)cc4nc3-n3nc(C)cc3C)CC2)c1 -11.5%, CCOCCc1nnc(NC(=O)C(=O)c2cc(C)n(-c3ccc(C)c(C)c3)c2C)s1 -17.9%, O=C(Cn1cnc2nc3c(cc2c1=O)CCCC3)Nc1ccc(F)cc1Cl 1.46%, O=C(NCC(c1cccs1)S(=O)(=O)c1cccs1)c1ccc(F)c(F)c1 (stereo unspecified) 0.749%, COc1ccccc1CNC(=O)CSc1nc(-c2ccc(OC)c(OC)c2)cc(C(F)(F)F)n1 -3.36%, COC(=O)c1sccc1S(=O)(=O)N(CC(=O)Nc1cc(C)ccc1C)c1ccc(C)c(C)c1 -9.05%, Cc1ccc(N2CC(NC(=O)c3ccc(S(=O)(=O)N(C)C)cc3)CC2=O)cc1C (stereo unspecified) 0.108%, CCC(C)NC(=O)c1ccc2c(c1)sc1nc(-c3ccc(OC)cc3)cn12 (stereo unspecified) -2.23%, O=C(CSc1nc2c([nH]c3ccccc32)c(=O)n1-c1cccc(Cl)c1)N1CCCC1 0.446%, CCc1ccc2oc(-c3ccc(C)c(NC(=O)c4cc([N+](=O)[O-])ccc4N4CCOCC4)c3)nc2c1 -5.09%, CCCCc1ccc(-n2nc3ccc(NC(=O)c4cc5ccccc5o4)cc3n2)cc1 12.7%, COc1ccc(C(=O)NCCSc2c[nH]c3ccccc23)cc1OC -2.19%, Clc1ccc(CSc2ccc(-c3cccs3)nn2)cc1 -2.48%, COc1ccc(-n2c(=O)c3c4c(sc3n(Cc3ccc(F)cc3)c2=O)CN(C(C)=O)CC4)c(OC)c1 -4.6%, CCC(CC)C(=O)N1c2ccccc2C(C)(c2ccccc2)CC1(C)C (stereo unspecified) -13.1%, COC(=O)CN1C(=O)CSc2ccc(S(=O)(=O)Nc3ccc(F)c(Cl)c3)cc21 2.42%, CSc1ncc(C(=O)Nc2cc(C)cc(C)c2)c(-c2ccccc2)n1 -4.76%, CC(=O)N1CCc2c(sc3c2c(=O)n(Cc2ccccc2)c(=O)n3Cc2ccc(Cl)cc2)C1 -6.49%, CN1CCN(C(CNC(=O)c2ccc(F)cc2)c2ccc3c(c2)OCO3)CC1 (stereo unspecified) -0.102%, COc1ccc(OC)c(CCNC(=O)c2c(C)oc3ncn(CC(C)C)c(=O)c23)c1 4.36%
